Experimental data from patent US20250368738A1 (PHILOGEN S P A, published 2025).

Target: T1, murine CD28 on the surface of primary mouse T cells (mouse, UniProt P31041 20-218)
T1 construct: whole, on cells
Assay: flow cytometry on primary mouse T cells, 50 nM antibody

T1 sequence (P31041 20-218): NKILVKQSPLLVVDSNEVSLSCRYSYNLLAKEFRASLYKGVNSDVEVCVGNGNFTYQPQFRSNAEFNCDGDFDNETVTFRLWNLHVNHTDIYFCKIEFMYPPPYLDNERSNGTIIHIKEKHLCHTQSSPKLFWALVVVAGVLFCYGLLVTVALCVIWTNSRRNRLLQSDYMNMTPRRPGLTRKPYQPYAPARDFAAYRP

binding result: binds
B1: AE2P IgG/anti-human CEA (scFv)2 bispecific antibody in IgG-(scFv)2 (2+2) format, wherein the IgG is in IgG4 format (format 2, FIG. 13) (bispecific antibody)
heavy: [omitted - about 100 residues]RYIAFDYWGQGTLVTVSSASTKGPSVFPLAPCSRSTSESTAALGCLVKDYFPEPVTVSWNSGALTSGVHTFPAVLQSSGLYSLSSVVTVPSSSLGTKTYTCNVDHKPSNTKVDKRV[omitted - human IgG4 Fc with S228P (EU numbers)]GSEVQLLESGGGLVQPGGSLRLSCAASGFTFSRTAMSWVRQAPGKGLEWVSAIDYDGGVTYYADSVKGRFTISRDNSKNTLYLQMNSLRAEDTAVYYCAKLTYARFDYWGQGTLVTVSSGGGGSGGGGSGGGGSEIVLTQSPGTLSLSPGERATLSCRASQSVSQNHLAWYQQKPGQAPRLLIYLASRRHTGIPDRFSGSGSGTDFTLTISRLEPEDFAVYYCQQSGRVPWTFGQGTKVEIK
light: DIQMTQSPSSLSASVGDRVTITCRASQSISSYLNWYQQKPGKAPKLLIYAASSLQSGVPSRFSGSGSGTDFTLTISSLQPEDFATYYCQQGGMPPDTFGQGTKVEIKRTVAAPSVFIFPPSDEQLKSGTASVVCLLNNFYPREAKVQWKVDNALQSGNSQESVTEQDSKDSTYSLSSTLTLSKADYEKHKVYACEVTHQGLSSPVTKSFNRGEC
notes: AE2P is in IgG4 format, the anti-human CEA antibody in scFv format on the heavy chains; also called anti-CD28 IgG/anti-human CEA (scFv)2 bispecific antibody
